Laboratory results taken from US20240024501A1 (BONUM THERAPEUTICS, published 2024).

Experiments:
[1] = biological target: T1, PDL1-hFc-Avi (Acro Biosystems, PDL-H82F2) (UniProt Q9NZQ7 in part, biotinylated); assay: ELISA: scFv captured at saturating level on anti-V5, titrated PDL1-hFc-Avi, streptavidin-HRP
AF33 [2] = biological target: T2, AF33; assay: ELISA: scFv captured at saturating level on anti-V5, titrated biotinylated AF33 (IL-15 fusion), streptavidin-HRP
T2 construct: also called IL-15; IL15

[3] = biological target: T1, PDL1-hFc-Avi (Acro Biosystems, …); assay: ELISA: scFv captured at saturating level on anti-V5, titrated PDL1-hFc-Avi, streptavidin-HRP; remark: listed apart in the source
AF33 [4] = biological target: T2, AF33; assay: ELISA: scFv captured at saturating level on anti-V5, titrated biotinylated AF33 (IL-15 fusion), streptavidin-HRP; remark: listed apart in the source

B1: AF666 (scFv)
scFv: MSTSTEQKLISEEDLQVQLVQSGAEVKKPGASVKVSCKASGYTFSTYYIHWVRQAPGQGLEWMGWMNPNSGNTGYAQTFQGRVTMTRDTSTSTVYMELSSLRSEDTAVYYCARSLFPTIFGVEVAFDIWGQGTLVTVSSASGGGGSGGGGSGGGGSHAS[about 100 residues not written out]GKPIPNPLLGLDST
B1: binds [1]; binds (AF33 [2]).

B2: AF614 (scFv)
scFv: MSTSTEQKLISEEDLQVQLVQSGAEVKKPGASVKVSCKASGYTFTNYYMHWVRQAPGQGLEWMGWMNPNSGNTGYAQKFQGRVTMTRDTSTSTVYMELSSLRSEDTAVYYCARSLFPTIFGVEVAFDIWGQGTLVTVSSASGGGGSGGGGSGGGGSHAS[about 100 residues not written out]GKPIPNPLLGLDST
B2: binds [3]; binds (AF33 [4]).

Like-named read-outs stand apart in the source and are kept apart here.
